Test results taken from paper PMC4336329 (PLoS ONE, 2015).
Screen size: about 310,000 compounds; about 2,200 (0.71%) showed an effect of 50% or more. The effect is printed as a negative number. The list shows a part of the results.

What follows are compounds tested against human ether-à-go-go-related gene (hERG) potassium channel (human, UniProt Q12809) (assay: primary screen, population patch clamp on CHO cells stably expressing hERG).
Sequence of human ether-à-go-go-related gene (hERG) potassium channel (Q12809 whole entry, looked up): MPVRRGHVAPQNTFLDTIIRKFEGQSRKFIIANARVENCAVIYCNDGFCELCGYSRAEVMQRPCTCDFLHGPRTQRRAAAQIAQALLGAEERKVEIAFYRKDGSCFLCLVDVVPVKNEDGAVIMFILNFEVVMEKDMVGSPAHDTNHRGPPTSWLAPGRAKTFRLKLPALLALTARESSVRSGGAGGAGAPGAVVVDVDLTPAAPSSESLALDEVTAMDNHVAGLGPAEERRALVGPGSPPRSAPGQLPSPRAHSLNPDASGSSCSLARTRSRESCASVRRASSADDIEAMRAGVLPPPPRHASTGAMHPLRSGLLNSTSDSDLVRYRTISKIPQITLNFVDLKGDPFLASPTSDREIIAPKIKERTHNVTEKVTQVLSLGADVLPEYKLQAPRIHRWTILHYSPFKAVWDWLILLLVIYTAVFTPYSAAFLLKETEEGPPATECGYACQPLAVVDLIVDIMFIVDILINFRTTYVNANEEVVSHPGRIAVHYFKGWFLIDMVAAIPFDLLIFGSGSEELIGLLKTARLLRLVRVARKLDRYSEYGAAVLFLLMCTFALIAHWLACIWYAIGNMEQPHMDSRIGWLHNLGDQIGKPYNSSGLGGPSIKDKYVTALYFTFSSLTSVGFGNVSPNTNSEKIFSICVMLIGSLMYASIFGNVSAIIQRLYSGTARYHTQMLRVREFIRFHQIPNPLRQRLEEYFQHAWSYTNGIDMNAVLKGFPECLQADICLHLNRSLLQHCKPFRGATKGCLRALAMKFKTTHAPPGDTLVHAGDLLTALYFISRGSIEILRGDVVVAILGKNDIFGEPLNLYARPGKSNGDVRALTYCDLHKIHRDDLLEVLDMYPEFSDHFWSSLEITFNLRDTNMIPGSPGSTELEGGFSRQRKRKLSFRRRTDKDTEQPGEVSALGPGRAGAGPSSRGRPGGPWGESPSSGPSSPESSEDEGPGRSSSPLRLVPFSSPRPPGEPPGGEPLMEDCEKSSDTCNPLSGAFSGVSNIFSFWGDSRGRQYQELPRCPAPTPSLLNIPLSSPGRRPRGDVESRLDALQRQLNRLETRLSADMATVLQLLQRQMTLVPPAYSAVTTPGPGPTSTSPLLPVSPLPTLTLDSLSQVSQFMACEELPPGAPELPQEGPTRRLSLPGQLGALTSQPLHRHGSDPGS

Row | SMILES | hERG current change (%, negative = inhibition) at 1uM [%]
1 | O=C(CN1C(=O)NC2(CCCCCCC2)C1=O)Nc1ccc(Cl)cc1 | 3.41
2 | CCOc1ccc(C(=O)NC2CCN(C(=O)NCc3ccccc3)CC2)cc1 | 7.81
3 | Cc1c(NC(=O)CSc2nc3ccc(Cl)cc3[nH]2)c(=O)n(-c2ccccc2)n1C | 13.7
4 | Cc1cc(C)c(C(=O)NCC(=O)c2ccccc2)c(C)c1 | 6.18
5 | Cc1ccc(C)c(NC(=O)COC(=O)COc2cccc3c2OC(C)(C)C3)c1 | 15.5
6 | COc1cccc(C2C(C(N)=O)=C(C)Nc3nc(CCCO)nn32)c1OC (stereo not drawn) | 7.87
7 | CCc1ccc(NC(=O)C(CC)Sc2nc3ccsc3c(=O)n2CCC(=O)O)cc1 (stereo not drawn) | 17.3
8 | COc1ccc(NC(=O)CSCC(=O)Nc2ccccc2N2CCCCC2)cc1 | 21.8
9 | Cc1ccc(C(=O)CCC(=O)NCc2ccc(Cl)cc2)cc1 | 12.2
10 | O=C(c1cn(CC2CCCCC2)nn1)N1CCN(c2ccc(F)cc2)CC1 | 6.61
11 | COc1ccc2c(=O)c(-c3ccc4c(c3)OCO4)coc2c1 | 10.1
12 | Cc1nc2sc(C(c3ccc(C(C)C)cc3)N3CCN(CCO)CC3)c(O)n2n1 (stereo not drawn) | 14.1
13 | CCOC(=O)CSc1nc2c(cnn2-c2ccc(Cl)cc2)c(=O)[nH]1 | 6.59
14 | c1ccc(OCCSc2nnnn2C2CCCCC2)cc1 | 9.14
15 | Fc1ccc(-c2[nH]ncc2CN2CCN(c3ccc(F)cc3)CC2)cc1 | -0.0709
16 | CC(C)n1c(/C=C/[C@@H](O)C[C@@H](O)CC(=O)[O-])c(-c2ccc(F)cc2)c2ccccc21.[Na+] | 20.4
17 | CN(C)c1ccc(C(C(=O)NC(C)(C)C)N(C(=O)c2csnn2)C2CC2)cc1 (stereo not drawn) | 8.36
18 | Cc1cccc(NS(=O)(=O)c2cc3c4c(c2)CC(=O)N4CCC3)c1C | 17.3
19 | CC1=NN(/C(=N\c2nnc(C)s2)Nc2ccccc2)[C@H](c2cccc3ccccc23)S1 | 1.38
20 | CCC(CC)N1CCN(C(=O)c2cc(OC)c(OC)c(OC)c2)CC1 | 13.7
21 | CN(Cc1ccon1)C(=O)c1ccc2nc(Cc3cccc(Cl)c3)oc2c1 | 13.4
22 | COc1ccc(C2c3ccc(O)cc3Oc3ncn(CCN4CCOCC4)c(=N)c32)cc1OC (stereo not drawn) | 4.84

Row | SMILES | hERG current change (%, negative = inhibition) at 1uM [%]
23 | N/C(=N\O)c1ccc(Cl)cc1Cl | 5.58
24 | Cc1ccc(S(=O)(=O)/N=C(\CN2CCCCC2)N2CCOCC2)cc1 | 3.34
25 | CCCCN(C(=O)c1ccc(S(=O)(=O)N2CCC(C)CC2)cc1)C1CCS(=O)(=O)C1 (stereo not drawn) | -6.52
26 | Cc1ccc2c(c1)C1CN(C)CCC1N2C(=O)COc1ccc(N(C)C(=O)C(C)(C)C)cc1 (stereo not drawn) | 10.5
27 | COc1ccc(NC(=O)CSc2nnc(C(C)C)n2N)cc1 | -7.02
28 | Cc1ccc(-n2c3nc(=O)n(C)c(=O)c-3cc3ccccc32)cc1 | 18
29 | C/C(=N\N1CCN(C)CC1)c1c(O)n(Cc2ccccc2)c(=O)[nH]c1=O | 3.02
30 | Cl.NC(N)=NCCCc1cn(CC(=O)N2CCNCC2)nn1 | 4.77
31 | CCCS(=O)(=O)NCCc1cc2ccc(OC)cc2[nH]c1=O | 10.9
32 | CN(C)CCNC(=O)C12CC3(C)CC(C)(CC(C)(C3)C1)C2.Cl | 9.83
33 | Cc1nc([N+](=O)[O-])cn1CC(=O)NCCCO | 8.4
34 | CCC(C)OC(=O)C1=C(C)O[C@]23OC(N)=C(C#N)[C@]12C(=O)c1ccccc13 (stereo partly drawn) | 1.76
35 | Cl.O=C1CSC(c2ccccc2F)N1CCN1CCCCC1 (stereo not drawn) | 1.03
36 | COc1ccc(C(=O)N2N=C(c3ccc(NS(C)(=O)=O)cc3)CC2c2cccs2)cc1 (stereo not drawn) | 6.53
37 | CCOC(=O)N1CCN(C(=O)COc2ccc(Br)cc2)CC1 | -22.7
38 | NC(=O)N1CCc2ccccc21 | 5.88
39 | COc1ccccc1N(CC(=O)NCCSCc1ccc(Cl)cc1)S(C)(=O)=O | -5.96
40 | O=C(NCc1cccnc1)c1cccs1 | 6.35
41 | CCOC(=O)N1CCC(N2CCCC(CO)(Cc3cccc(Cl)c3)C2)CC1 (stereo not drawn) | -9.2
42 | S=C(NCCc1ccccc1)Nc1cccc2cnccc12 | 3.97
43 | Cc1ccc(C(=O)N2CCN(C)CC2)cc1S(=O)(=O)N1CCOCC1 | 20
44 | CCCN(CC(=O)Nc1ccccc1C)C(=O)c1ccc(N2CCOCC2)c([N+](=O)[O-])c1 | -24.4

Row | SMILES | hERG current change (%, negative = inhibition) at 1uM [%]
45 | CCCCn1c(N)c(N(CC)C(=O)c2cc(OC)cc(OC)c2)c(=O)[nH]c1=O | 1.56
46 | Cn1c(=O)n(C)c2cc(S(=O)(=O)N3CCN(c4ccccc4)CC3)ccc21 | -3.09
47 | CCCCC1=NC2(CCCC2)C(=O)N1Cc1ccc(-c2ccccc2-c2nn[nH]n2)cc1 | 10.4
48 | Cc1cccc(C(=O)Nc2ccccc2SCC2CSc3nc4ccccc4c(=O)n32)c1 (stereo not drawn) | -66.5
49 | CC(=O)c1ccc(N2CCN(C(=O)c3ccco3)C(C)C2)c(F)c1 (stereo not drawn) | -11.2
50 | COc1ccc(NC(=O)CSc2nc3c(c(=O)n2-c2ccc(F)cc2)SCC3)cc1 | 6.85
51 | Cc1c(C(=O)NC(=S)Nc2ccc3c4c(cccc24)CC3)cccc1[N+](=O)[O-] | 9.1
52 | Cc1ccc(OC(C)C(=O)N(C)Cc2ccccc2)c([N+](=O)[O-])n1 (stereo not drawn) | 6.03
53 | O=C1OCCC1Sc1nc2ccccc2c(=O)n1Cc1ccc(F)cc1 (stereo not drawn) | -37.5
54 | Cl.N=c1ccn(Cc2cccc(Cl)c2)cc1 | 0.737
55 | CCC(=O)Nc1cc2c(cc1C(=O)c1ccccc1)OCCO2 | 4.89
56 | C#CCN(C)[C@H](C)Cc1ccccc1.Cl | 10.3
57 | CCOc1ccc(CCNC(=O)COC(=O)CNS(=O)(=O)c2ccc(NC(C)=O)cc2)cc1OCC | 10.7
58 | CSc1nncn1/N=C/c1cc(Cl)ccc1F | -0.963
59 | COc1cccc(C2=CC(c3ccc(N(C)C)cc3)n3ncnc3N2)c1 (stereo not drawn) | 8.3
60 | O=C(COC(=O)c1ccc(OC(F)F)cc1)NCCC1=CCCCC1 | 0.371
61 | O=C(CCn1[nH]c(=O)c2ccccc2c1=O)N1CCOCC1 | 23.2
62 | O=C(COC(=O)c1c2c(nc3ccccc13)CCCC2)c1ccc(Br)s1 | 1.13
63 | CN(C)c1cc(NC(=O)CNC(C)(C)CC(C)(C)C)c2ccccc2n1.O=C(O)C(=O)O | -7.36
64 | Cc1ccc(-c2nc(COC(=O)C3=NN(c4ccccc4)C(=O)CC3)cs2)cc1 | 2.28
65 | O=[N+]([O-])c1cccc(-c2nnc3n2CCCCC3)c1 | 11.6
66 | CC(=O)/C(=N/Nc1ccccc1)N1CCOCC1 | -10.6

Row | SMILES | hERG current change (%, negative = inhibition) at 1uM [%]
67 | Nc1ccccc1SCC(O)Cn1ccc2ccccc21 (stereo not drawn) | 15.5
68 | CC(=O)N1N=C(c2ccc(Br)cc2)OC1(C)CC(=O)Nc1ccccc1 (stereo not drawn) | 13.8
69 | CCOc1ccc(-c2cc(C)[n+](CCN(CC)CC)c(-c3ccc(OCC)cc3)c2)cc1.[O-][Cl+3]([O-])([O-])[O-] | -19.3
70 | COC(=O)c1ccccc1NC(=O)C(=O)NCc1ccncc1 | 7.93
71 | CCn1cc(C(=O)N2CCCC(CO)(Cc3ccccc3C)C2)cn1 (stereo not drawn) | 13.1
72 | O=C(NCCc1ccccc1)c1c(F)c(F)c(F)c(F)c1F | 0.342
73 | COc1ccc(C(=O)NC(=S)Nc2ccccc2N2CCN(S(C)(=O)=O)CC2)cc1OC | 8.64
74 | CCOc1ccccc1N1CCN(C(=O)CC(C)C)CC1 | 9.86
75 | Cc1ccc(S(=O)(=O)c2cc3ccccc3oc2=Nc2ccc3c(c2)OCCO3)cc1 | 13.1
76 | Cc1nc2ncnn2c(N2CCCC(C(=O)Nc3ccc4c(c3)CCC4)C2)c1C (stereo not drawn) | -25.2
77 | CCC(=O)Nc1cc(C(=O)OC(C(=O)c2ccc(C)c(C)c2)c2ccccc2)ccc1C (stereo not drawn) | -3.07
78 | O=C(Nc1csc([N+](=O)[O-])c1)Nc1ccccc1Cl | 15.9
79 | CC(C)N(C)C1CCN(S(=O)(=O)c2ccc(-c3ccc(=O)[nH]n3)s2)CC1 | 1.75
80 | Cc1cccc(/C=N/n2c(-c3ccncc3)n[nH]c2=S)c1 | 11.9
81 | COC(=O)c1cc(S(=O)(=O)N2CCN(c3ccc(C(C)=O)cc3)CC2)c[nH]1 | 11.7
82 | O=C(O)CCC(=O)Nc1ccc(-c2csc(Nc3cccc4ccccc34)n2)cc1 | 8.86
83 | Cl.c1ccc(COc2ccccc2CNCc2cccnc2)cc1 | -0.0032
84 | CC(C)CCNC(=O)CN(C(=O)CCC(=O)Nc1ccccn1)c1ccc(F)c(Cl)c1 | 11.2
85 | CS(=O)(=O)N(Cc1ccccc1)c1ccc(C(=O)NCC2CCCO2)cc1 (stereo not drawn) | 12.9
86 | CCn1c(SCC(=O)N2CCc3ccccc32)nnc1-c1c[nH]c2ccccc12 | 6.41
87 | Cc1cc(N2C(=O)C3C4CCC(C4)C3C2=O)no1 (stereo not drawn) | 16
